Some of the results follow.
Assays:
Assay in all cases: glycan array binding signal (z-score within array); higher = stronger binding
Conditions in all cases: glycan notation: IUPAC condensed, linker removed
[1] = target: 3dGal(b1-3)[Fuc(a1-4)]Glc
Summary of the method: (§1)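 Columns mapping to the same glycan were averaged after glycan names were converted to IUPAC-condensed notation. The data come from 3228 arrays in the Consortium for Functional Glycomics database, limited to those with an available protein sequence. Binding is reported as a within-array Z-score averaged across arrays of one protein sequence and across linkers.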

[2] = target: 3dGal(b1-4)Glc
Summary of the method: as §1

[3] = target: 4d8dNeu5Ac(a2-3)Gal(b1-4)Glc
Summary of the method: as §1

[4] = target: 4dNeu5Ac(a2-3)Gal(b1-4)Glc
Summary of the method: as §1

[5] = target: 7dNeu5Ac(a2-3)Gal(b1-4)Glc
Summary of the method: as §1

[6] = target: 8dNeu5Ac(a2-3)Gal(b1-4)Glc
Summary of the method: as §1

[7] = target: 9dNeu5Ac(a2-3)Gal(b1-4)Glc
Summary of the method: as §1

[8] = target: Ara(a1-5)Ara(a1-5)Ara(a1-5)Ara(a1-5)Ara(a1-5)Ara
Summary of the method: as §1

[9] = target: Ara(a1-5)Ara(a1-5)Ara(a1-5)Ara(a1-5)Ara(a1-5)Ara(a1-5)Ara
Summary of the method: as §1

[10] = target: Fuc(a1-2)Gal
Summary of the method: as §1

[11] = target: Fuc(a1-2)Gal(b1-3)GlcNAc(b1-3)Gal(b1-4)Glc
Summary of the method: as §1

[12] = target: Fuc(a1-2)Gal(b1-3)GlcNAc(b1-3)[Fuc(a1-3)[Gal(b1-4)]GlcNAc(b1-6)]Gal(b1-4)Glc
Summary of the method: as §1

[13] = target: Fuc(a1-2)Gal(b1-3)[Fuc(a1-4)]GlcNAc(b1-3)Gal(b1-4)Glc
Summary of the method: as §1

[14] = target: Fuc(a1-2)Gal(b1-3)[Fuc(a1-4)]GlcNAc(b1-3)Gal(b1-4)[Fuc(a1-3)]GlcNAc(b1-3)Gal(b1-4)Glc
Summary of the method: as §1

[15] = target: Fuc(a1-2)Gal(b1-3)[Fuc(a1-4)]GlcNAc(b1-3)[Fuc(a1-2)]Gal(b1-4)Glc
Summary of the method: as §1

[16] = target: Fuc(a1-2)Gal(b1-3)[Fuc(a1-4)]GlcNAc(b1-3)[Fuc(a1-3)[Gal(b1-4)]GlcNAc(b1-6)]Gal(b1-4)Glc
Summary of the method: as §1

[17] = target: Fuc(a1-2)Gal(b1-3)[Fuc(a1-4)]GlcNAc(b1-3)[Gal(b1-4)GlcNAc(b1-6)]Gal(b1-4)Glc
Summary of the method: as §1

[18] = target: Fuc(a1-2)Gal(b1-4)[Fuc(a1-3)]GlcNAc(b1-3)Gal(b1-4)Glc
Summary of the method: as §1

[19] = target: Fuc(a1-2)Gal(b1-4)[Fuc(a1-3)]GlcNAc(b1-3)[Fuc(a1-2)]Gal(b1-4)Glc
Summary of the method: as §1

[20] = target: Fuc(a1-2)[Gal(a1-3)]Gal
Summary of the method: as §1

[21] = target: Fuc(a1-2)[Gal(a1-3)]Gal(b1-4)GlcNAc(b1-3)Gal(b1-4)Glc
Summary of the method: as §1

[22] = target: Fuc(a1-2)[GalNAc(a1-3)]Gal
Summary of the method: as §1

[23] = target: Fuc(a1-2)[GalNAc(a1-3)]Gal(b1-3)GlcNAc(b1-3)Gal(b1-4)Glc
Summary of the method: as §1

[24] = target: Fuc(a1-2)[GalNAc(a1-3)]Gal(b1-3)[Fuc(a1-4)]GlcNAc(b1-3)Gal(b1-4)Glc
Summary of the method: as §1

[25] = target: Fuc(a1-2)[Neu5Ac(bond)]Gal(b1-3)GlcNAc(b1-3)Gal(b1-4)Glc
Summary of the method: as §1

[26] = target: Fuc(a1-3)GlcNAc6S
Summary of the method: as §1

[27] = target: Fuc(a1-3)[3dGal(b1-4)]Glc
Summary of the method: as §1

[28] = target: Fuc(a1-3)[3dGal(b1-4)]GlcNAc(b1-3)Gal
Summary of the method: as §1

[29] = target: Fuc(a1-3)[Gal(b1-4)]Glc
Summary of the method: as §1

[30] = target: Fuc(a1-3)[Gal(b1-4)]GlcNAc
Summary of the method: as §1

[31] = target: Fuc(a1-3)[Gal(b1-4)]GlcNAc(b1-3)Gal(b1-4)Glc
Summary of the method: as §1

[32] = target: Fuc(a1-3)[Gal(b1-4)]GlcNAc(b1-3)Gal(b1-4)[Fuc(a1-3)]Glc
Summary of the method: as §1

[33] = target: Fuc(a1-3)[Gal(b1-4)]GlcNAc(b1-3)[Fuc(a1-2)]Gal(b1-4)Glc
Summary of the method: as §1

[34] = target: Fuc(a1-3)[Gal(b1-4)]GlcNAc(b1-3)[Fuc(a1-3)[Gal(b1-4)]GlcNAc(b1-6)]Gal(b1-4)Glc
Summary of the method: as §1

[35] = target: Fuc(a1-3)[Gal3S(b1-4)]Glc
Summary of the method: as §1

[36] = target: Fuc(a1-3)[Gal3S(b1-4)]GlcNAc
Summary of the method: as §1

[37] = target: Fuc(a1-3)[Gal3S(b1-4)]GlcNAc(b1-3)Gal
Summary of the method: as §1

[38] = target: Fuc(a1-3)[Gal3S(b1-4)]GlcNAc(b1-3)Gal(b1-4)Glc
Summary of the method: as §1

[39] = target: Fuc(a1-3)[Gal3S(b1-4)]GlcNAc6S(b1-3)Gal(b1-4)Glc
Summary of the method: as §1

[40] = target: Fuc(a1-3)[Gal6S(b1-4)]GlcNAc(b1-3)Gal(b1-4)Glc
Summary of the method: as §1

[41] = target: Fuc(a1-6)GlcNAc
Summary of the method: as §1

[42] = target: Gal(a1-4)Gal(b1-4)Glc
Summary of the method: as §1

[43] = target: Gal(a1-4)Gal(b1-4)GlcNAc
Summary of the method: as §1

[44] = target: Gal(a1-6)Glc
Summary of the method: as §1

[45] = target: Gal(b1-3)GalNAc
Summary of the method: as §1

B1: ZG16p (Homo sapiens), O60844 (protein)
chain: ARSSSYSGEYGGGGGKRFSHSGNQLDGPITALRVRVNTYYIVGLQVRYGKVWSDYVGGRNGDLEEIFLHPGESVIQVSGKYKWYLKKLLFVTDKGRYLSFGKDSGTSFNAVPLHPNTVLRFISGRSGSLIDAIGLHWDVYPSSCSRC
[1]
  glycan array binding signal (z-score): -0.327
[2]
  glycan array binding signal (z-score): -0.064
[3]
  glycan array binding signal (z-score): -0.328
[4]
  glycan array binding signal (z-score): -0.219
[5]
  glycan array binding signal (z-score): -0.328
[6]
  glycan array binding signal (z-score): -0.328
[7]
  glycan array binding signal (z-score): -0.299
[8]
  glycan array binding signal (z-score): -0.328
[9]
  glycan array binding signal (z-score): -0.328
[10]
  glycan array binding signal (z-score): -0.287
[11]
  glycan array binding signal (z-score): -0.328
[12]
  glycan array binding signal (z-score): -0.328
[13]
  glycan array binding signal (z-score): -0.328
[14]
  glycan array binding signal (z-score): -0.328
[15]
  glycan array binding signal (z-score): -0.328
[16]
  glycan array binding signal (z-score): -0.328
[17]
  glycan array binding signal (z-score): -0.328
[18]
  glycan array binding signal (z-score): -0.328
[19]
  glycan array binding signal (z-score): -0.328
[20]
  glycan array binding signal (z-score): -0.213
[21]
  glycan array binding signal (z-score): -0.237
[22]
  glycan array binding signal (z-score): -0.249
[23]
  glycan array binding signal (z-score): -0.328
[24]
  glycan array binding signal (z-score): -0.328
[25]
  glycan array binding signal (z-score): -0.259
[26]
  glycan array binding signal (z-score): -0.123
[27]
  glycan array binding signal (z-score): -0.025
[28]
  glycan array binding signal (z-score): -0.229
[29]
  glycan array binding signal (z-score): -0.057
[30]
  glycan array binding signal (z-score): -0.031
[31]
  glycan array binding signal (z-score): -0.178
[32]
  glycan array binding signal (z-score): -0.328
[33]
  glycan array binding signal (z-score): -0.328
[34]
  glycan array binding signal (z-score): -0.328
[35]
  glycan array binding signal (z-score): -0.259
[36]
  glycan array binding signal (z-score): -0.328
[37]
  glycan array binding signal (z-score): -0.328
[38]
  glycan array binding signal (z-score): -0.328
[39]
  glycan array binding signal (z-score): -0.274
[40]
  glycan array binding signal (z-score): -0.328
[41]
  glycan array binding signal (z-score): -0.305
[42]
  glycan array binding signal (z-score): -0.109
[43]
  glycan array binding signal (z-score): -0.328
[44]
  glycan array binding signal (z-score): -0.272
[45]
  glycan array binding signal (z-score): -0.177
